Reference: publication PMC4336329 (PLoS ONE, 2015)
The campaign covered roughly 310,000 compounds. About 14,000 (4.5%) showed an effect of 50% or more. Effects have a minus sign here. This is one part of the list.

These compounds were tested against human ether-à-go-go-related gene (hERG) potassium channel (human, UniProt Q12809) (assay: primary screen, population patch clamp on CHO cells stably expressing hERG).
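Note: peak tail current of the secondary pulse compared with the same well before compound.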

Chain of human ether-à-go-go-related gene (hERG) potassium channel (Q12809 whole entry, looked up): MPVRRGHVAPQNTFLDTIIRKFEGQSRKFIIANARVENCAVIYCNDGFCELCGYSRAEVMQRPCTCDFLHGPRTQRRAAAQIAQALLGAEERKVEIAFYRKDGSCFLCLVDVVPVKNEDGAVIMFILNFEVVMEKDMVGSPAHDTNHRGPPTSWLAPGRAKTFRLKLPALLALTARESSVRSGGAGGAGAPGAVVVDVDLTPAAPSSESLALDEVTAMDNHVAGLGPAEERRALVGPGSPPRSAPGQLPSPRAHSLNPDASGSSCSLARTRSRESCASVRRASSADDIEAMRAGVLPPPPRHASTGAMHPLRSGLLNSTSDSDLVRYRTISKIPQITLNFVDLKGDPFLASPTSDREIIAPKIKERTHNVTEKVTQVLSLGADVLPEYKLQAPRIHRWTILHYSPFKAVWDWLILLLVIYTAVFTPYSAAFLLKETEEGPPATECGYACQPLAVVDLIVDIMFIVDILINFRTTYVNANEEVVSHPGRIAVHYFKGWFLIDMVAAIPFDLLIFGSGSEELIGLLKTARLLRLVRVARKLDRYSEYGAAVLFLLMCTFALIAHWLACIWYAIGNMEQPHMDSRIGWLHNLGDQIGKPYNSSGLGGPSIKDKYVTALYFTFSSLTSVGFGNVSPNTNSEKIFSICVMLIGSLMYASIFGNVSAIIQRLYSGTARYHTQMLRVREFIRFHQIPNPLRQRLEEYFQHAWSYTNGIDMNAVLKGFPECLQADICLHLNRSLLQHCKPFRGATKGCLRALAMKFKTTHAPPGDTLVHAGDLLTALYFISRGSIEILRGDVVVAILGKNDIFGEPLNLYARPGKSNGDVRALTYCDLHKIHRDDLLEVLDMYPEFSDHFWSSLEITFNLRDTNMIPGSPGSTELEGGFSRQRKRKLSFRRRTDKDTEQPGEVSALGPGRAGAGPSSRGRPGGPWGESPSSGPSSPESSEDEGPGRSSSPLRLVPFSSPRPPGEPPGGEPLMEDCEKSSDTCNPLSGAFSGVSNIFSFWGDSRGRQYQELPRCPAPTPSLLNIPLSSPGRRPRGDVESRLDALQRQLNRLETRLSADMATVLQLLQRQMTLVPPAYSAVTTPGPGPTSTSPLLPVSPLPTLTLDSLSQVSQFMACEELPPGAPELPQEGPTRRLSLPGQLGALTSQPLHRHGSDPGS

SMILES | hERG current change (%, negative = inhibition) at 10uM [%]
O=C(CSc1nc(C2CCCCC2)nc2ccccc12)NCc1ccc2c(c1)OCO2 | 15.4
COc1ccc(C(=O)C2CCCN(Cc3ccccn3)C2)c(OC)c1 (stereo not shown) | -55.7
COc1ccc(OC)c(Nc2nc3nonc3nc2N2CCCC(C)C2)c1 (stereo not shown) | 14.3
CC1=C(C#N)C(c2cccnc2)C2=C(CCCC2=O)N1 (stereo not shown) | -3.67
COC(=O)C1CCN(C(=O)COC(=O)CC(NC(N)=O)c2ccc(Cl)cc2)CC1 (stereo not shown) | 3.08
C/C=C/C=C/C(=O)Nc1cccc(C2=NOC3(C2)C[C@H](C(N)=O)N(C(=O)CC(c2ccccc2)c2ccccc2)C3)c1 (stereo partly shown) | 15.7
CC(C)CCn1c(SCC(=O)NC2CCS(=O)(=O)C2)nc2cc(Cl)ccc2c1=O (stereo not shown) | 2.16
O=C(CN1CCCCCCC1)Nc1cccc(Cl)c1Cl | 29.8
O=c1ccc(NS(=O)(=O)c2ccccc2Cl)cn1Cc1ccc(Cl)c(Cl)c1 | -1.32
CCCCOC(=O)Nc1nnc(CC(=O)NCc2ccccc2)s1 | 4.3
Cc1ccccc1CS(=O)(=O)c1ncc(Cl)c(C(=O)Nc2ccc(F)cc2)n1 | 36.1
CCc1ccc(-n2ccc(=O)c(C(=O)O)n2)cc1 | 18.8
O=C(CSc1ccc(Cl)cc1)Nc1cccc(-c2nc3ccccc3[nH]2)c1 | 15.7
CCC1SC(CC)C(=O)N(CC(=O)NCc2ccc(F)cc2)C1=O (stereo not shown) | -7.78
COc1cc(/C=N/N=C/c2cc(OC)c(O)c(OC)c2)cc(OC)c1O | 14.6
O=C(COC(=O)c1cccnc1Cl)NCc1ccco1 | 34.7
CCOC(=O)C(NC(C)=O)C(=O)Nc1ccc(C(C)C)cc1 (stereo not shown) | 14.9
CC(=O)/C=N/Nc1ccccc1 | -10.8
CCCC(=O)c1ccc(N2CCN(S(=O)(=O)c3ccc(C)cc3)CC2)c(F)c1 | 8.43
O=C(COC(=O)c1ccco1)Nc1ccc([N+](=O)[O-])cc1Cl | 7.09
CC(C)(C)OC(=O)CC[C@@H](C(=O)N1CCN(C(=O)OC(C)(C)C)CC1)n1cc(C(CO)NC(=O)OC(C)(C)C)nn1 (stereo partly shown) | 14.1
CCOC(=O)C(=CNCC(=O)O)C(=O)OCC | -3.44

SMILES | hERG current change (%, negative = inhibition) at 10uM [%]
Cc1ccc2nc(SCC(=O)c3cc(C)n(C)c3C)[nH]c2c1 | -9.77
O=c1c(C(c2ccccc2)c2c(O)nc3n(c2=O)CCCS3)c(O)nc2n1CCCS2 | 13.9
COc1ccc(OC)c(-n2c(-c3cccc(O)c3)n[nH]c2=S)c1 | 17.4
COc1ccc(C(=O)Nc2ccc3ccccc3n2)cc1OC | 15.2
CC1Cc2ccccc2N1C(=O)COC(=O)Cn1nnc(-c2ccccc2)n1 (stereo not shown) | 5.15
O=[N+]([O-])c1ccccc1-c1ccc(C(=S)N2CCN(c3ccccc3)CC2)o1 | 22.5
CCOc1ccc(CNC(=O)Cn2ccc3cc(S(=O)(=O)N4CCCCCC4)ccc32)cc1 | 7.49
CC(C)CC(=O)NC1(C(F)(F)F)C(=O)Nc2c1c(=O)[nH]c(=O)n2Cc1ccco1 (stereo not shown) | 18.2
Cc1c(C=O)c(=O)n(-c2ccccc2)n1C | 18.5
CCOc1cc(CNCC(C)C)cc(Cl)c1OCc1ccccc1 | -14.4
C1CN(CCN2CCOCC2)CCN1 | 21
Cc1ccc(C(=O)c2c3ccc([N+](=O)[O-])cc3[n+]([O-])n2CCC[NH3+])cc1.O=C([O-])C(F)(F)F | -65.4
O=C(CCCCCn1c(=O)[nH]c2ccccc2c1=O)NCCc1c[nH]c2ccccc12 | -12.6
COC(=O)c1cc(NC(=O)c2ccc(Cn3cc(Cl)cn3)o2)cc(C(=O)OC)c1 | 16.6
COC(=O)C1=C(c2ccccc2OCc2ccccc2)C[C@@H]2CC[C@H]1N2C(=O)NCc1ccccc1 | -21
COc1ccc(NS(=O)(=O)c2ccc3[nH]c(=O)[nH]c3c2)cc1OC | 16.3
Cc1cc(N2C(=O)C3C4c5ccccc5C(c5ccccc54)C3C2=O)no1 (stereo not shown) | -10.5
COC(=O)C1=C(c2ccc(F)cc2OCc2ccccc2)C[C@@H]2CC[C@H]1N2C(=O)NCc1ccc(C(C)(C)C)cc1 | 10.7
COc1ccccc1NC(=O)CSc1nnc(Cc2cc(=O)[nH]c(=O)[nH]2)n1-c1ccccc1 | -2.56
Cc1ccc(C(=O)NCCCNC(=O)c2ccccn2)cc1 | 5.5
COc1cccc(/C=N/NC(=O)CNC(=O)CCc2ccccc2)c1O | 21.8
